Values belong to the binder of their own block, whether it stands above or below them.
Experiments:
[1] = target: T1, IgG2 Fc fragment without modification (SEQ ID NO: 103) (Homo sapiens (Human), UniProt P01859 99-324 = IgG part); experiment: SEC peak area ratio after coexpression of full-length heavy chain, light chain and Fc fragment
T1 construct: Unmodified Fc fragment of subclass IgG2, coexpressed with the full-length heavy chain and the light chain; it pairs as a homodimer or with the full-length heavy chain

[2] = target: the molecule itself; experiment: as above
[3] = target: T2, IgG2 Fc fragment without modification (SEQ ID NO: 103) (Homo sapiens (Human), UniProt P01859 99-324 = IgG part); experiment: co-expression of full-length heavy chain, light chain and Fc fragment in Expi293F, affinity purification, SEC peak area ratio;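 further: purified antibodies analysed by size exclusion chromatography with UV detection at 215 nm, each species given as share of total chromatogram peak area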
T2 construct: Fc fragment co-expressed with a full-length heavy chain and the light chain; the associating unit is one Fc chain; also called WT-IgG2 Fc fragment

[4] = target: the molecule itself; experiment: as above

Heteromultimer (%) [1]: 56.1%
B1: IgG4 full-length heavy chain without CH3 modification (SEQ ID NO: 92) with light chain SEQ ID NO: 61 (antibody)
heavy: QVQLQESGPGLVRPSQTLSLTCTVSGYSITSDHAWSWVRQPPGRGLEWIGYISYSGITTYNPSLKSRVTMLRDTSKNQFSLRLSSVTAADTAVYYCARSLARTTAMDYWGQGSLVTVSSASTKGPSVFPLAPCSRSTSESTAALGCLVKDYFPEPVTVSWNSGALTSGVHTFPAVLQSSGLYSLSSVVTVPSSSLGTKTYTCNVDHKPSNTKVDKRV[no letters for human IgG4 Fc with S228P (EU numbers)]
light: DIQMTQSPSSLSASVGDRVTITCRASQDISSYLNWYQQKPGKAPKLLIYYTSRLHSGVPSRFSGSGSGTDFTFTISSLQPEDIATYYCQQGNTLPYTFGQGTKVEIKRTVAAPSVFIFPPSDEQLKSGTASVVCLLNNFYPREAKVQWKVDNALQSGNSQESVTEQDSKDSTYSLSSTLTLSKADYEKHKVYACEVTHQGLSSPVTKSFNRGEC
Homo full-length heavy chain (%) [2]: 31.8%

Heteromultimer (%) [3]: 50%
B2: IgG1 full-length heavy chain without modification (SEQ ID NO: 1) with light chain SEQ ID NO: 61 (antibody)
heavy: QVQLQESGPGLVRPSQTLSLTCTVSGYSITSDHAWSWVRQPPGRGLEWIGYISYSGITTYNPSLKSRVTMLRDTSKNQFSLRLSSVTAADTAVYYCARSLARTTAMDYWGQGSLVTVSSASTKGPSVFPLAPSSKSTSGGTAALGCLVKDYFPEPVTVSWNSGALTSGVHTFPAVLQSSGLYSLSSVVTVPSSSLGTQTYICNVNHKPSNTKVDKRV[no letters for human IgG1 Fc]
light: B1 light
notes: also called WT-IgG1
Homo full-length heavy chain (%) [4]: 38.7%

From patent US20260217835A1 (published 2026)
